# The list shows a part of the results. Further columns of the screen follow, without active or inactive calls.
# Legend:
# Test in all cases: Primary Screen for Target Class Profiling of Small Molecule Inhibitors of Methyltransferases
# [1] = molecular target: Glycine N-methyltransferase (Homo sapiens) (UniProt Q14749); settings: purified enzyme, MTase-Glo SAH luminescence; measured here: GNMT inhibition; at 40 µM; stronger effect = lower value
# Procedure, shortened: (§1)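 Each enzyme was assayed with SAM and its substrate. SAH formation detected by MTase-Glo luminescence; single-point 40 uM screen[…].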
# [2] = molecular target: Guanidinoacetate N-methyltransferase (Homo sapiens) (UniProt Q14353); settings: purified enzyme, MTase-Glo SAH luminescence; measured here: GAMT inhibition; at 40 µM; stronger effect = lower value
# Procedure, shortened: as §1
# [3] = molecular target: Histamine N-methyltransferase (Homo sapiens) (UniProt P50135); settings: purified enzyme, MTase-Glo SAH luminescence; measured here: HNMT inhibition; at 40 µM; stronger effect = lower value
# Procedure, shortened: as §1
# [4] = molecular target: Nicotinamide N-methyltransferase (Homo sapiens) (UniProt P40261); settings: purified enzyme, MTase-Glo SAH luminescence; measured here: NNMT inhibition; at 40 µM; stronger effect = lower value
# Procedure, shortened: as §1
# [5] = molecular target: Phenylethanolamine N-methyltransferase (Homo sapiens) (UniProt P11086); settings: purified enzyme, MTase-Glo SAH luminescence; measured here: PNMT inhibition; at 40 µM; stronger effect = lower value
# Procedure, shortened: as §1
# % is set by controls: 0 for no effect and ±100 for the full control effect.
SMILES,"activity change, negative = inhibition [1]","activity change, negative = inhibition [2]","activity change, negative = inhibition [3]","activity change, negative = inhibition [4]","activity change, negative = inhibition [5]"
O=C1c2ccccc2C(=O)c2cc(S(=O)(=O)Nc3ccc(Br)cc3)ccc21,-39.4%,-2.19%,-2.01%,-9.37%,-13.7%
COc1ccc(CNC(=O)c2ncn3c2C(=O)N(C2CC2)C(C)(C(=O)NCc2ccc(C)cc2)C3)cc1 (stereo not drawn),-0.743%,2.59%,8.53%,4.09%,2.9%
CCCNC(=O)NCCc1ncc(C)n1CC1CC1,0.693%,2.67%,-28.1%,0.038%,2.67%
O=S(=O)(c1ccccc1)c1nnn2c1nc(NCc1ccccc1)c1cc(Cl)ccc12,2.68%,0.393%,5.41%,-0.153%,0.511%
Cc1ccc(S(=O)(=O)c2nnn3c2nc(NC2CCCC2)c2ccccc23)cc1C,-2.13%,0%,-1.15%,0.238%,-5.55%
CN=C(N)NCCCCC/C=C(/C)CC(C)C1OC(=O)C(C)C(O)/C=C/C(C)C(O)CC(O)C(C)C(O)CCC(C)C(O)CC2(O)OC(CC(OC(=O)CC(=O)O)CC(O)CC(O)C(C)C(O)/C(C)=C/CCC1C)CC(O)C2O (stereo not drawn),0.718%,14.6%,3.64%,-1.14%,-5.6%
COCCn1c(C)cc(C(=O)N2CCCCCCNC(=O)CC2)c1C,-3.94%,-14%,-2.08%,-5.09%,-2.47%
NCCCCN(Cc1nc2ccccc2[nH]1)[C@H]1CCCc2cccnc21,-5.84%,-8.84%,-6.34%,-19.7%,-5.29%
Cc1cc(C)c(CNC(=O)c2cccc(CCC(C)(C)O)c2)cn1,-8.21%,-10.6%,-8.38%,-20%,-12.4%
CC1CC(C)CN(S(=O)(=O)c2ccc3c(c2)oc(=O)n3CC(=O)Nc2ccc(F)cc2)C1 (stereo not drawn),-5.79%,0%,1.08%,-1.74%,-31%
CCC1c2ccc(C)n2CCN1C(=O)NCc1cccc(OC)c1 (stereo not drawn),-10.8%,1.28%,-7.32%,-6.62%,-8.27%
O=S(=O)(c1cccc2ccccc12)n1ccc2ccc(N3CCN4CCCC4C3)cc21 (stereo not drawn),4.89%,-7.02%,-14.8%,-29.9%,-8.15%
CN1CCN(CCCNC(=O)c2cc3n(n2)CC(C)(C(=O)NC2CCCC2)N(C)C3=O)CC1 (stereo not drawn),0.907%,1.89%,-6.28%,0.507%,-2.65%
CCOC(=O)c1cc2n(n1)CC(C)(C(=O)NCc1ccc(F)cc1)N(Cc1ccc(Cl)cc1)C2=O (stereo not drawn),-4.04%,2.85%,-1.74%,-5.42%,-3.92%
CC(C)Cn1c(=O)c2cc(F)ccc2n2c(SCc3ccccc3Cl)nnc12,-6.1%,0%,5.24%,-13.4%,1.34%
O=C1CCN(C(=O)[C@H](Cc2ccccc2)NC(=O)c2ccoc2)CCCOCCN1,-6.29%,-4.95%,-2.21%,-10.9%,-20%
CS(=O)(=O)N1C[C@@H](Oc2ccccc2)C[C@H]1C(=O)N1CCCC1,-0.794%,1.55%,0.474%,-5.03%,13.6%
CC1(C(=O)NC2CCCCCCC2)Cn2c(ccc2-c2ccco2)C(=O)N1C1CCCC1 (stereo not drawn),-7.59%,2.57%,-1.85%,-15.9%,-4.73%

SMILES,"activity change, negative = inhibition [1]","activity change, negative = inhibition [2]","activity change, negative = inhibition [3]","activity change, negative = inhibition [4]","activity change, negative = inhibition [5]"
O=C(CCc1c[nH]c2ccccc12)N1CC(N(Cc2ccccc2)C2CCOCC2)C1,-5.42%,-5.8%,0.506%,-13%,8.46%
COc1ccccc1NC(=O)N1CCN2C(=O)NC[C@H]2C1,-1.97%,-1.12%,-0.658%,-8.53%,-2.47%
CC/C=C(\C(=O)N[C@H]1C(=O)N2C(C(=O)OCOC(=O)C(C)(C)C)=C(COC(N)=O)CS[C@H]12)c1csc(N)n1,,-9.12%,,-20.5%,-6.19%
CN1CCCC2(CC1)CCN(C(=O)c1ccc(C#CC(C)(C)O)cc1)CC2,-4.45%,-8%,-12.7%,-16.1%,-4.96%
CC(C)(C)Nc1nc2cc(Cl)c(Cl)cc2nc1S(C)(=O)=O,-8.79%,-25.5%,0.416%,-35.7%,-11%
Nc1nc2c(ncn2[C@@H]2O[C@@H]3COP(=O)(O)O[C@H]3[C@H]2O)c(=O)[nH]1,1.19%,5.26%,10.2%,-7.76%,3.96%
Cc1ccc(F)c(C(=O)N[C@H]2CCOC[C@H]2C2CCOCC2)c1Cl,-5.29%,-6.53%,-2.51%,-6.24%,1.88%
CN(CCc1ccccc1)C(=O)c1cc(-c2ccc[nH]2)n[nH]1,-33.7%,-19.2%,-9.72%,-21.6%,-22.7%
CCc1ccc(S(=O)(=O)Nc2ccc3c(c2)n(C)c(=O)n3C)cc1,-2.94%,-0.16%,-4.21%,-15.8%,-11.2%
Cc1cccc(Cn2nc3n(C(C)C)c(=O)c4ccc(C(=O)NCC(C)C)cc4n3c2=O)c1,-3.87%,3.47%,0.124%,-0.86%,-0.106%
N#CC1CCN(C(=O)c2nc(-c3ccc(Cl)cc3Cl)c3ccccn23)CC1,-5.3%,-3.1%,-3.24%,-18%,-9.14%
NS(=O)(=O)c1cc2c(cc1Cl)NCNS2(=O)=O,-0.864%,3.07%,0.59%,-6.37%,4.33%
CCCN1C(=O)c2cc(C(=O)NCc3cccc(C)c3)nn2CC1(C)C(=O)NC1CCCC1 (stereo not drawn),-1.03%,4.73%,0.871%,-1.15%,2.11%
CC(=O)O[C@@H]1[C@H](O[C@@H]2O[C@@H](CO)[C@H](O)[C@H]2O)[C@@H](O[C@@H]2O[C@@H](C)[C@H](O[C@@H]3OC[C@@H](O)[C@H](O)[C@H]3O)[C@@H](O)[C@H]2O)[C@H](OC(=O)[C@]23CCC(C)(C)C[C@H]2C2=CCC4[C@@]5(C)CC[C@H](O[C@@H]6O[C@H](C(=O)O)[C@@H](O)[C@H](O)[C@H]6O[C@@H]6O[C@H](CO)[C@H](O)[C@H](O)[C@H]6O)[C@@](C)(C=O)C5CC[C@@]4(C)[C@]2(C)C[C@H]3O)O[C@@H]1C (stereo partly drawn),5.44%,17.3%,12.7%,6.71%,12.1%
NC(N)=N/N=C/c1c(Cl)cccc1Cl,0.741%,5.07%,-31.3%,-8.85%,0.059%
CC(C)[C@@H]1C[C@@H]2C[C@@H](Nc3ccccn3)C[C@]2(c2ccccc2)CO1,-5.98%,-7.54%,-6.15%,-11.5%,-5.53%
CC1CCCC(C)N1C(=O)c1ccc2nc(-c3cccnc3)oc2c1 (stereo not drawn),-7.82%,-7.43%,-3.46%,-14.4%,-10.5%
COc1cc2c(c(O)c1OC/C=C(\C)CC/C=C(/C)CCC=C(C)C)CN(C(CCC(=O)O)C(=O)O)C2=O (stereo not drawn),-2.63%,-6.1%,3.12%,-21.7%,-1.16%
